109 compounds from PubChem BioAssay AID488969 (Vanderbilt High Throughput Screening Facility, 2010) can be followed below.

Structures are written as SMILES. The full ranking holds about 110,000 compounds; the median of “z-score” is about -0.1, and the highest 2% start at about 2. The list shows a part of the results. Active and inactive are the calls of the source.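 The calls were made as follows: active = z-score in the third read window above 3 or below -3; inactive = the rest.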

This experiment addresses Metabotropic glutamate receptor 8 (Rattus norvegicus) (UniProt P70579). Briefly: rat mGluR8 modulators via GIRK flux, primary screen, cell-based, thallium flux, HTS (AID 488969). The note with it: HEK293 rat mGluR8, GIRK (G protein-gated inwardly rectifying potassium channel) thallium flux, FluoZin2; at 10 µM; stronger effect = higher value; submaximal glutamate (EC20) added with thallium.
UniProt P70579, sequence (P70579 whole entry, looked up): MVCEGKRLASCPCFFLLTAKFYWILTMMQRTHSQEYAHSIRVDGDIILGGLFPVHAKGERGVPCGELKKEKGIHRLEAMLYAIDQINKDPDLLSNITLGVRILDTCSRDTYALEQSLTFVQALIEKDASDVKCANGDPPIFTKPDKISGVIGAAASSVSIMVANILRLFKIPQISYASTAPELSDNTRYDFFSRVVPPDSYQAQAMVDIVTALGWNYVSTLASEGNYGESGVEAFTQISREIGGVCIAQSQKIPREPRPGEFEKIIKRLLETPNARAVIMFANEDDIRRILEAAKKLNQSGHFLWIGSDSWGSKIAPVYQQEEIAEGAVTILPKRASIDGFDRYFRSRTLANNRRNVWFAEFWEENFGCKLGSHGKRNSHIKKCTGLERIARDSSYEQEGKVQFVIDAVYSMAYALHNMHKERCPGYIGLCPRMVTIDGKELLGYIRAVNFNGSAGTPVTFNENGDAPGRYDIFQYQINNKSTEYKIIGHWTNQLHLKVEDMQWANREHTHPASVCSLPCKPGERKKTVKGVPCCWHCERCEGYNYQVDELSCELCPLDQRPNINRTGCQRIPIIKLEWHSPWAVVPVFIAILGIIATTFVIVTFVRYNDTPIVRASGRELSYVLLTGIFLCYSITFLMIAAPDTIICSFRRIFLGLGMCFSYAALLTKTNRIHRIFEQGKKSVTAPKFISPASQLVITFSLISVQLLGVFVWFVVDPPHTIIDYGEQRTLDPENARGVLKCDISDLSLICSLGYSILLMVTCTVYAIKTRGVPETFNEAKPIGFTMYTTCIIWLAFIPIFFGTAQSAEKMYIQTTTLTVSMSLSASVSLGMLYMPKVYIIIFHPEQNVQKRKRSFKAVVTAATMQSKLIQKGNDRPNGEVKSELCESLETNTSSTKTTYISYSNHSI
`Cc1ccc(CSc2sc(C(=O)c3ccccc3)c(N)c2C#N)cc1` gave a z-score of -0.0563. With `Cc1ccc(/C(N)=N/OC(=O)N2CCOCC2)cc1` the figure was -0.314; with `CCOc1ccc(S(=O)(=O)NCc2ccco2)cc1`, -0.0605; with `Cc1nc(NCc2ccccn2)c2ccccc2n1`, 0.238. With `O=C(O)c1c(F)c(F)cc2ccccc12` the figure was 0.365.

Turning to `CCSc1ncnc2c1sc1nc3c(cc12)COC(C)(C)C3`, the z-score was determined as 0.111. The figure for `O=c1c2ccccc2nc(/C=C/c2cccc([N+](=O)[O-])c2)n1CCO` is 0.0948.

Compound `Cc1c(NCc2cc(Cl)cc(Cl)c2O)c(=O)n(-c2ccccc2)n1C` showed a z-score of -0.115.

Take `O=C(CSc1nnc(Cc2cc(=O)[nH]c(=O)[nH]2)n1-c1ccc(F)cc1)NC1CCCC1`: the z-score amounted to 0.00117. Take `CCOC(=O)C(C)Sc1nnc(Cc2cc(=O)[nH]c(=O)[nH]2)n1-c1cccc(OC)c1` (centres undefined): the z-score was found to be 0.0951. The figure for `O=C(C1=NN[C@@H]2C(=O)N(c3cccc(F)c3)C(=O)[C@H]12)C(c1ccccc1)c1ccccc1` is -0.23; for `c1ccc(SCCOCCN2CCc3ccccc3C2)cc1` it is 0.295; for `Cc1ccc(-n2c(C)nnc2SCC(=O)N2CCc3ccccc3C2)cc1C` it is -0.57. `O=C(CCCn1c(=S)[nH]c2cc3c(cc2c1=O)OCO3)N1CCN(c2ccc(Cl)cc2)CC1` showed a z-score of -0.36. The figure for `CCC(C)N1CCN(C(=O)c2cccs2)CC1` (centres undefined) is 0.327; for `S=C(NCCc1ccccc1)Nc1ccc(Br)cc1` it is 0.268.

`COC(=O)c1ccccc1-c1ccc(/C=C2\C(=O)N(c3ccccc3)N=C2c2ccccc2)o1` gave a z-score of -0.0357. For `COC(=O)CCC(=O)Nc1cccc(C(=O)Nc2cccc(Cl)c2)c1`, the z-score amounted to 0.0914. The figure for `N#Cc1c(-c2ccccc2)nc2n(-c3ccccc3)nc(C(=O)Nc3ccccc3)n2c1=O` is -0.39.

The compound `COc1cccc(CNc2ccc3c(c2)ncn3C(C)C)c1OC` displayed a z-score of -1.6. With `CC1CCCN(S(=O)(=O)c2ccccc2[N+](=O)[O-])C1` (centres undefined) the figure was 0.182; with `CCC1CCCCN1C(=S)NC(=O)c1ccc([N+](=O)[O-])cc1` (centres undefined), active: 9.16.

`O=C(Nc1ccc2c3c(cccc13)CC2)c1ccc(Br)o1` displayed a z-score of 0.0664. The figure for `COc1ccccc1NC(=O)Cn1nnc(-c2ccccc2NS(=O)(=O)c2ccccc2)n1` is -0.198; for `CCCOc1ccc(C2/C(=C(\O)c3c(C)[nH]c(C(=O)OC)c3C)C(=O)C(=O)N2CCN(C)C)cc1` (centres undefined) it is 0.491. Compound `Cc1nc2cc(N3CCCCC3)c(NC(=O)c3ccncc3)cc2c(=O)n1Cc1ccccc1` showed a z-score of -0.0957. The figure for `CCOc1ccc(-c2cc(C(=O)NN3CCN(C)CC3)c3cc(Cl)ccc3n2)cc1` is -0.0539; for `COCC(=O)Nc1cc([N+](=O)[O-])ccc1C` it is -0.258; for `CCOC(=O)c1ccc(N2C(=O)C(C)=C(C)C2=O)cc1` it is 0.616. With `O=C(Nc1ccc(Cl)cc1)N(Cc1cccnc1)Cc1ccco1` the figure was 1.62; with `C(=C\c1ccccc1)/C=N/Nc1nc2ccccc2s1`, -0.125; with `Cn1c(N)c(C(=O)COC(=O)C2=COCCO2)c(=O)n(C)c1=O`, 0.121.

Take `O=C(NCc1cccs1)c1cc(C2CC2)on1`: the z-score is 0.944.

The compound `CN(CC(=O)Nc1ccccc1Oc1ccccc1)Cc1ccccc1F` gave a z-score of 0.0859. With `OCn1ncn(-c2ccccc2)c1=S` the figure was -0.0243; with `CCn1c(SCC(=O)c2ccc(C)cc2)nnc1-c1ccncc1`, 0.101; with `CCNc1nc(CN2CCCCC2)nc2scc(-c3ccccc3)c12`, 0.384. With `C(=N\c1nc2ccccc2n1CCN1CCCCC1)/c1ccc2c(c1)OCO2` the figure was -0.298. The figure for `Cc1cc(NC(=O)Nc2cccs2)no1` is -0.218; for `CC1=C(C(=O)Nc2ccc(C)cc2C)C(c2ccc(C)o2)NC(=O)N1` (centres undefined) it is -0.12; for `Nc1ncnc2nc(SCc3ccc(Cl)cc3Cl)[nH]c12` it is 0.793. Take `Cc1ccc(-c2nnn(CC(=O)N(CC3CCCO3)C(C(=O)NC3CCCC3)c3ccc(F)cc3)n2)o1` (centres undefined): the z-score was -0.0511. With `O=C(Nc1ccc(Nc2ccccc2)cc1)c1ccco1` the figure was -0.294. Compound `Cc1ncc(CO)c(/C=N/NC(=O)c2ccc(Br)cc2)c1O` registered a z-score of 0.712.

With `COc1ccc(S(=O)(=O)N(Cc2ccc(OC)c(OC)c2)Cc2ccco2)cc1`, the z-score is -0.388.

For the compound `Cc1cccc(NC(=O)C2SC(=Nc3c(C)cccc3C)C(C(=O)N3CCOCC3)=C2N)c1` (centres undefined), the z-score was -0.48.

`Cc1ccccc1C(=O)c1c[nH]c(C(=O)NCc2cccs2)c1`: the z-score was 0.307. The figure for `C/C(N)=C(/C#N)C(=O)COC(=O)c1cc(C)n(-c2ccc(F)cc2)c1C` is -0.578. The figure for `Cc1cc(-c2csc(NC(=O)c3ccc(=O)n(C)n3)n2)c(C)n1CC1CCCO1` (centres undefined) is -1.41; for `CC1(C)CC(=O)C=C(NCc2ccco2)C1` it is -0.0748. With `O=C(O)CCc1ccc(-c2ccccc2)n1-c1cccc(O)c1` the figure was 0.824; with `Cc1ccc(N2CCN(C(=O)N3CCCC3)CC2)cc1C`, 0.263.

Compound `CCNC(=O)COc1ccc(-c2ccccc2)cc1` showed a z-score of -0.138. With `c1ccc(NCC2OCc3ccccc3CO2)cc1` the figure was -0.104.

`CC1(C)CC(=O)C(C2(O)C(=O)N(Cc3ccccc3)c3ccccc32)CO1` (centres undefined) showed a z-score of -0.385. `CC(C)C1Oc2ccccc2N(CC(=O)NCCCN2C(C)CCCC2C)C1=O` (centres undefined) gave a z-score of 0.132.

The compound `CCOc1ccc(-n2cc(C(=O)Nc3cccc(C)n3)c3cc(OC)c(OC)cc3c2=O)cc1` had a z-score of -0.379. Regarding `CCN(CC)c1ccc(NC(=O)c2cnn(CC)c2)cc1`, the z-score is -0.00246. Compound `COc1cccc(-c2nc(-c3ccc(NC(=O)c4cccnc4)cc3)no2)c1` came in with a z-score of 0.903. With `Cc1cc([N+](=O)[O-])c(-c2ccc(/C=N/n3cnnc3)o2)cc1Cl` the figure was -0.526; with `Clc1cccc(Cl)c1Cn1nnc(-c2cccs2)n1`, 1.93. The figure for `COc1ccccc1C1C(C(N)=O)=C(C)Nc2ncnn21` (centres undefined) is -0.00954. `CC(=O)c1c(C)nc(C)nc1NC(=O)Cc1ccccc1` displayed a z-score of -0.359.

Consider `Cc1ccc(SCCOCCN2CCc3ccccc3C2)cc1`, for which the z-score was 0.529. With `N#Cc1c(=O)c2nc(NCc3ccccc3)ncc2n2ccccc12` the figure was -0.143; with `CC(C)CNC(=O)C(=O)NNC(=O)C1CCCCC1`, 1.21; with `CCN(CC)CCOC(=O)c1cccc(OC)c1`, -0.193. `COC(=O)CCC(=O)NNC(=O)CCCOc1ccc(Cl)cc1Cl`: the z-score worked out at 0.0585. With `Cc1ccc(/C=N/NC(=O)CCCOc2ccc(Cl)cc2Cl)cc1[N+](=O)[O-]` the figure was -0.174.

With `COc1ccc(-c2nc(Cn3c(SCc4ccc(F)cc4)nc4ccncc43)c(C)o2)cc1OC`, the z-score is 0.565. The figure for `O=C(N/N=C/C1CC=CCC1)c1ccc(Cl)cc1O` (centres undefined) is -0.0913. The figure for `Cc1ccc(-c2nn(-c3ccccc3)cc2/C=N/NC(=O)c2ccc(Br)o2)cc1` is -0.0869; for `O=C(COC(=O)c1cccc(S(=O)(=O)N2CCc3ccccc32)c1)NC1CCS(=O)(=O)C1` (centres undefined) it is -0.363; for `Cc1cc(C(=O)COC(=O)CN=C2NS(=O)(=O)c3ccccc32)c(C)n1CCc1ccc(Cl)cc1` it is -0.267. Take `Cc1cc(=O)[nH]c(N2CCN(Cc3ccccc3)CC2)n1`: the z-score is -0.021. The figure for `O=C(Nc1nnc(-c2ccccc2Cl)o1)c1cc2cc([N+](=O)[O-])ccc2s1` is 0.848. With `CCn1c(SCC(=O)Nc2ccc(S(N)(=O)=O)cc2)nnc1-c1ccccc1OC` the figure was -0.0171; with `CCN1C(=O)c2cccc3c(S(=O)(=O)N(C(=O)c4ccncc4)c4ccc(OC)cc4)ccc1c23`, -0.184. Consider `COc1cc(C(=O)NC(=S)Nc2ccc([N+](=O)[O-])cc2C)cc(OC)c1OC`, for which the z-score was -0.056.

In turn, `CC(C)OC(=O)CC12CN3CC(CC(=O)OC(C)C)(CN(C1)C(=O)c1ccccc1C3=O)C2=O` displayed a z-score of -0.294. `CCCc1ccc(-c2c(C)sc(NC(=O)c3ccnn3C)c2C#N)cc1` had a z-score of -0.124. Compound `COc1ccc(CCNC(=O)c2cc(CC(C)C)on2)cc1OC` displayed a z-score of -0.0915.

As to `Cc1ccc2nc3c(cc(C#N)c(=N)n3CCCN3CCOCC3)c(=O)n2c1`, the z-score stood at 0.43. `O=C(COc1ccc(S(=O)(=O)N2CCOCC2)cc1)Nc1ccccc1C(F)(F)F` returned a z-score of 1.25. As to `Cc1ccc(CCNC(=O)C2CCCN(C(=O)c3cc4sccc4n3C)C2)cc1` (centres undefined), the z-score is -0.287.

The compound `COC(=O)c1cc(OC)c(OC)cc1NC(=O)CC1CCCCC1` registered a z-score of -0.624. With `COc1ccc2c(c1)CCc1c(C(=O)NCCc3ccc(OC)c(OC)c3)noc1-2` the figure was -1.38; with `N#CCCSCc1ccc(OCC(=O)O)cc1`, -0.199; with `COc1ccc(N2CCN(C(=O)C(Cc3ccccc3)n3cccc3)CC2)cc1` (centres undefined), -0.419. The figure for `CN(C)C(=O)Cn1nc(-c2ccccc2)c2ccccc2c1=O` is 0.23; for `COCCn1c(=O)[nH]c2cc(C(=O)NCc3cccnc3)ccc2c1=O` it is -0.183; for `O=C(Cn1c(Cc2ccccc2)nc2ccccc21)NCc1ccc2c(c1)OCO2` it is -0.253. On to `Cc1ccc(-c2c(C(=O)NCc3ccccc3)oc(=O)c3ccccc23)cc1`, for which the z-score came out at 0.292. With `Nc1cccc(-n2nnnc2CN2CCOCC2)c1` the figure was 1.94; with `Cc1ccc(-c2nnn(CC(=O)N(Cc3ccccc3F)C(C(=O)NC3CCCC3)c3ccncc3)n2)o1` (centres undefined), -0.155; with `O=C(COc1ccc(Cl)cc1Cl)NC1CCSC1=O` (centres undefined), -0.434. `CC(C)CC1NC(=O)N(CC(=O)c2ccc3c(c2)OCCO3)C1=O` (centres undefined) yielded a z-score of -0.0713. Regarding `COc1ccc(Nc2nc(Cl)nc(NCc3ccco3)n2)c(OC)c1`, the z-score worked out at 0.00838. The figure for `O=C(c1sc2ccccc2c1Cl)N(Cc1cccs1)C1CCS(=O)(=O)C1` (centres undefined) is -0.282; for `Cc1ccc(NC(=O)C2CCN(C(=O)NC3CCCCC3)CC2)cc1` it is 0.0162. With `Cc1ccc(C2/C(=C(/O)c3ccc(OC(C)C)cc3)C(=O)C(=O)N2CCN2CCOCC2)cc1` (centres undefined) the figure was -0.251; with `CC(C)(C)C(=O)CSc1nc2c(c(-c3cccs3)c1C#N)CCC2`, -0.545; with `Cc1ccc(C)c(C(=O)CSc2nnnn2-c2cccnc2)c1`, 0.0368.

For `COc1ccc2occ(NC(C)=O)c2c1`, the z-score came out at 0.453. With `CCN(CC)c1ccc(NC(=O)c2ccccc2Br)cc1S(=O)(=O)Nc1ccccc1OC` the figure was 0.207; with `CC1C[C@@]2(NC(=O)NC2=O)C(C)CN1C` (some centres undefined), -0.0512. With `COc1ccc(Nc2ncc(C(=O)N3CCN(Cc4ccccc4)CC3)c3ccccc23)cc1` the figure was -0.319; with `CN(NC(=S)Nc1ccc(OC(F)F)cc1)C(=S)Nc1ccc(OC(F)F)cc1`, 0.288; with `CC(Sc1nnc(-c2ccc(O)cc2)o1)C(=O)Nc1cccc2ccccc12` (centres undefined), -0.795.
